# Reference: PubChem BioAssay AID1671193 (National Center for Advancing Translational Sciences (NCATS), 2021)
# Out of some 150,000 compounds screened, about 180 (0.12%) were called active. Inconclusive means that the source gave no clear call. Such entries were picked first, then a sample of the others. Calls come from the whole dose curve; as a rule, active = well fitted cell-killing curve with a large enough effect; inconclusive = small, poorly fitted or top-dose-only effect, or effect the other way; inactive = flat fitted curve, though single readings scatter. Potencies of inconclusive entries are doubtful fits and often do not repeat.
# Experiment: GF-AFC viability counterscreen for inhibitors of alpha-synuclein gene (SNCA) expression; note: nearly all actives have a fitted effect of over 30% in size;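 for activity change, negative = cytotoxicity: 0% = DMSO-treated cells and -100% = medium-only wells without cells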
# Conditions: HEK-293-SNCA-luc viability, GF-AFC fluorescence, 24 h; activity change, negative = cytotoxicity: at 57.1 µM (top of the series) unless noted
# Procedure, shortened: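 HEK-293-SNCA-luc cells (1500/well) plated 24 h, then exposed 24 h to a dilution series; GF-AFC added 30 min at 37C, fluorescence 405/540 nm; normalised to medium-only and DMSO wells, Hill fit.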
# Potency is the fitted concentration of half-maximal effect; tags give direction and shape of the fitted curve.
SMILES,Potency,"activity change, negative = cytotoxicity"
CCN(CCCNC(=O)c1cc2c(=O)[nH]c3ccc(C)cc3c2s1)Cc1ccccc1,"inconclusive: 31.6 µM [cytotoxic, single point]",–
Cc1ccccc1C(=O)Nc1sc2c(c1C(=O)N1CCC(C)CC1)CCCC2,"inconclusive: 39.8 µM [cytotoxic, single point]",–
NC[C@H](O)c1ccc(O)c(O)c1,inactive,–
COc1ccccc1CNC(=O)CCC1N=C2c3ccccc3N=C(SCC(=O)NCCc3ccccc3)N2C1=O (stereo not drawn),"inconclusive: 3.16 µM [rising, full curve, poor fit]",–
Cc1c(C(=O)N(C)C)sc2c1c(=O)n(-c1ccc(F)cc1)c(=O)n2CC(=O)N(C)c1ccccc1,"inconclusive: 11.2 µM [cytotoxic, partial curve, poor fit]",–
Cc1cccc(CNC(=O)c2ccc(Cn3c(SCc4ccccc4)nc4cccnc43)cc2)c1,"inconclusive: 20 µM [cytotoxic, partial curve, poor fit]",–
Cc1cccc(Nc2nc3ccccc3n3c(N)nnc23)c1,"inconclusive: 1.58 µM [cytotoxic, full curve, poor fit]",–
Cn1cc(-c2cnc3ccc4ccc(CS(=O)(=O)NCc5ccccn5)cc4c(=O)c3c2)cn1,"inconclusive: 29.9 µM [cytotoxic, partial curve, poor fit]",–
COc1ccc(NC(=O)Cc2ccc(N(Cc3ccc(C)cc3)C(=O)c3ccco3)cc2)cc1,"inconclusive: 3.55 µM [cytotoxic, single point]",–
CCc1ccc(C(=O)N2CCC[C@H]2c2nc(-c3ccc(OC)c(OC)c3)no2)cc1,"inconclusive: 28.2 µM [cytotoxic, partial curve, poor fit]",–
Cc1noc(C)c1S(=O)(=O)NCCc1csc2nc(-c3ccc(F)cc3)nn12,"inconclusive: 1 µM [cytotoxic, full curve, poor fit]",–
CC(C)CN1CCN(C(=O)C2CCN(C(=O)N3CC4CC(C3)[C@H]3CCCC(=O)N3C4)CC2)CC1 (stereo partly drawn),inactive,–
COc1cccc(-c2ccc(CN3CCCC(NC(=O)C(C)(C)C)C3)cc2)c1 (stereo not drawn),inactive,–
O=C(c1ccc2nc(-c3ccc(F)cc3)cn2c1)N1C[C@@H]2CCCN[C@@H]2C1,inactive,–
C=Cc1c(C)c2cc3nc(cc4[nH]c(cc5nc(cc1[nH]2)C(C)=C5CCC(=O)O)c(CCC(=O)OC)c4C)[C@@]1(C)C3=CC=C(C(=O)OC)[C@H]1C(=O)OC,"inconclusive: 27.1 µM [cytotoxic, single point]",–
Cn1nc(C(=O)N2CCC(OCCOc3ccccc3)CC2)c2ccccc21,–,inactive: -4.33% [at 12.5 µM]
O=C(CCNc1c(-c2cccc(F)c2)nc2cnccn12)NCc1ccc(Cl)cc1,"inconclusive: 15.8 µM [rising, partial curve, poor fit]",–
CC(CNC(=O)c1ccc(Cn2c(SCc3ccccc3)nc3cccnc32)cc1)c1ccccc1 (stereo not drawn),"inconclusive: 12.6 µM [cytotoxic, partial curve, poor fit]",–
O=C1NC2(CCN(CC3CCCCC3)C2)Oc2ccccc21 (stereo not drawn),"inconclusive: 7.94 µM [cytotoxic, single point]",–

SMILES,Potency,"activity change, negative = cytotoxicity"
Cc1cnc(C(=O)N2CCCCCCNC(=O)[C@@H]3C[C@@H](C(=O)N4CCc5ccccc5C4)C[C@@H]32)cn1,"inconclusive: 39.8 µM [cytotoxic, single point]",–
Cc1noc(C)c1-c1cc2cc(CNC(C)C)oc2c(NC2CCN(C)CC2)n1,"inconclusive: 17.8 µM [cytotoxic, partial curve, poor fit]",–
COc1ccccc1/C=C/c1nc(C#N)c(NC(C)c2ccccc2)o1 (stereo not drawn),"inconclusive: 22.4 µM [rising, partial curve]",–
CCn1ncc(CN2CCCN(Cc3ccncc3)C(c3ccccc3)CC(=O)NCC2)c1C (stereo not drawn),"inconclusive: 3.98 µM [cytotoxic, single point]",–
O=C(Cc1cccc(F)c1)N1CC(Oc2cccc(-c3nc(-c4ccccc4)no3)c2)C1,"inconclusive: 39.8 µM [cytotoxic, single point]",–
COc1ccc(NC(=O)Cn2c(=O)n(CC3CCCO3)c(=O)c3ccccc32)cc1 (stereo not drawn),"inconclusive: 3.55 µM [cytotoxic, full curve]",–
COc1ccc(C(=O)N2CCc3ccc(C(=O)Nc4ccc5c(c4)OCCO5)cc32)cc1,"inconclusive: 35.5 µM [cytotoxic, single point]",–
CCOc1ccc(C(=O)c2oc3ccccc3c2NC(=O)c2cc(-c3ccccc3)on2)cc1,"inconclusive: 35.5 µM [rising, single point]",–
COc1cc(Cl)c(C)cc1Nc1c2c(nc3ccccc13)CCC2,"inconclusive: 14.1 µM [cytotoxic, partial curve]",–
COc1ccc(CC(=O)N[C@H]2[C@H](O)[C@H](O)C[C@@H]2c2ccc(N3CCOCC3)nc2)cc1,inactive,–
COCC1(O)CCOC2(CCN(C(=O)c3cccnc3)CC2)C1 (stereo not drawn),inactive,–
O=C(Nc1cccc(-c2ccc(N3CCOCC3)nn2)c1)Nc1cccc(Cl)c1F,"inconclusive: 20 µM [cytotoxic, single point]",–
COc1ccc(OC)c(NC(=O)Cn2ccn3nc4c(c3c2=O)CCCCC4)c1,"inconclusive: 39.8 µM [cytotoxic, single point]",–
Cc1cccc(Cn2c(SCc3ccc(C(=O)NCCc4ccccc4)cc3)nc3cccnc32)c1,"inconclusive: 28.2 µM [cytotoxic, partial curve, poor fit]",–
Cc1cccc(-c2cccc(CN3CCC(NC(=O)Cc4cccc(Cl)c4)CC3)c2)c1,"inconclusive: 17.8 µM [cytotoxic, partial curve, poor fit]",–
O=C(O)c1cnc(-c2cc(NCc3ccccn3)nc3[nH]ccc23)c(Cl)c1,inactive,–
COC(=O)N1CCN(c2nccc(Nc3ccccc3OC)n2)CC1,inactive,–
Cc1c(-c2ccc(O)cc2)n(Cc2ccc(OCCN3CCCCCC3)cc2)c2ccc(O)cc12,"inconclusive: 1.12 µM [rising, full curve, poor fit]",–
O=C(NCc1ccc(F)c(F)c1)c1ccc2nnc(-c3cccc(C(F)(F)F)c3)n2c1,inactive,–
